Data on 103 compounds can be found in PubChem BioAssay AID1159583 (ICCB-Longwood Screening Facility, Harvard Medical School, 2016).

Molecules are shown by their SMILES. The list shows a part of the results. These are further read-outs of the screen, such as a control signal, another cell line or another target. No call is given for them. Most of these compounds were active or inconclusive in the main read-out, so they are no random draw.

The test in a line: hypoxia reporter signal reduction in M. tuberculosis – fluorescence, absorbance growth readout, primary screen (AID 1159583). The settings on record: M. tuberculosis hypoxia-regulated fluorescent reporter, measured here: M. tuberculosis growth (absorbance), stronger effect = higher value, concentration not given here.
As to `O=C(OCC#CCSc1nnc(-c2ccc(Br)cc2)o1)c1ccco1`, the growth inhibition is 20.7%.
Consider `Cc1ccc(/C=C/C(=O)N2CCN(Cc3ccccc3)CC2)o1`, for which the growth inhibition was 38.1%.
For `O=C(Cn1c(=O)cnc2ccccc21)Nc1cccc(S(=O)(=O)N2CCOCC2)c1` the value was 68.2%.
The result for `CC1=NN(c2ccccc2)C(=O)/C1=C/C=C/C=C/N(C)C` reads -1.45%; that for `COc1ccc(NC(=O)CON=CC(=O)Nc2ccc(C)cc2)c(OC)c1`, 51.8%.
For `Cc1cnc(C(=O)NC(C)CCc2ccccc2)cn1` (stereo not drawn) the value was 24.1%.
Turning to `Cc1cc(C)c2sc(N(CCCN(C)C)C(=O)c3ccc(S(=O)(=O)N(C)C4CCCCC4)cc3)nc2c1`, the growth inhibition was 21.6%.
For the compound `CCN(CC)CCCNc1nc2cc(OC)c(OC)cc2c2nc(-c3cccnc3)nn12`, the growth inhibition was determined as 13.4%.
For `CCCn1nnc(NC(=S)NC(=O)c2ccccc2OC)n1` the value was 75.3%; for `CC(=O)c1ccc2c(c1)c(C#N)c1ccccc1[n+]2[O-]`, 16.6%.
For `O=S(=O)(O)c1cccc(N=Nc2c(O)ccc3ccccc23)c1` the value was 7.34%; for `Cn1cc(C=NO)nc2c(=O)n(-c3ccccc3)c(=O)nc1-2`, 7.66%.
For `COc1cccc(-c2c(-c3cc(OC)cc(OC)c3)n(C)c3ccc(-c4cnc(N5CCOCC5)nc4)cc23)c1` the value was 8.05%; for `Oc1ccccc1N=Cc1ccc[nH]1`, 44.8%; for `O=C(NCCc1ccc(Cl)cc1)c1ccc(CNc2c(N3CCOCC3)c(=O)c2=O)cc1`, 76.2%.
On to `Cc1ccc(C2c3c(C)nn(-c4ccc([N+](=O)[O-])cc4)c3N=C3C(=O)Nc4ccccc4N32)cc1` (stereo not drawn), for which the growth inhibition stood at 5.47%.
For `Cc1nn(-c2ccc(N3CCOCC3)nn2)c(C)c1CCC(=O)N1CCN(C)CC1`, the growth inhibition was determined as 36.5%.
With `CN(C)S(=O)(=O)c1ccc(C(=O)OCC(=O)Nc2ccc3c(c2)OCO3)cc1`, the growth inhibition was 57.4%.
The result for `COc1ccc(S(=O)(=O)N2CCN(C(=O)C3CC(=O)N(c4ccccc4F)C3)CC2)cc1OC` (stereo not drawn) reads 61.6%; that for `COc1ccc2nc(C)cc(NN=Cc3ccc(F)cc3)c2c1`, 49.7%; that for `CC(NC(=S)Nc1ccc(OC(F)F)c(Cl)c1)C(C)(C)C` (stereo not drawn), 50.1%.
For `Nc1c(Cl)cc(C2=NCCn3c2c2ccc([N+](=O)[O-])cc2[n+]3[O-])cc1Cl` the value was 25.1%.
Regarding `CCn1c(O)c(N=NC(=O)c2ccc(CSc3nncn3C)cc2)c2ccccc21`, the growth inhibition was 16.1%.
The result for `CC1=C(C(=O)Nc2ccccc2)C(c2ccc(C)cc2)N=C(Nc2nc3ccccc3o2)N1` (stereo not drawn) reads -20.4%.
As to `Cc1ccc(S(=O)(=O)N2CCOCC2)cc1C(=O)OCC(=O)NC1CC1`, the growth inhibition amounted to 61.2%.
As for `N#Cc1ccc(OCC(=O)N2CCN(S(=O)(=O)c3ccc(Cl)s3)CC2)cc1`, the growth inhibition was 69.2%.
The result for `C=CCC(CC(=O)NC(CO)Cc1ccccc1)C(=O)NC(COC(=O)C(CC=C)Cc1ccc(F)cc1)Cc1c[nH]c2ccccc12` (stereo not drawn) reads 13%; that for `O=C(CCSc1nnc(-c2ccccc2)o1)N1CCOCC1`, 12.6%; that for `COc1ccc(CNc2nc3nc(C)c(Cl)c(=O)n3[nH]2)cc1`, 54.7%.
The result for `N#CC(=NNc1ccc([N+](=O)[O-])cc1)C(=N)N1CCCCC1` reads 5.47%; that for `O=C(CSCc1ccc(Cl)cc1)Nc1ccccc1O`, 38.9%.
For `N#CC1(Nc2ccccc2)C(=O)Nc2ccccc21` (stereo not drawn) the value was 20.7%; for `O=C(COC(=O)Cc1ccc(Cl)cc1)NCc1cccs1`, 71%.
Regarding `NC1=NC(=O)/C(=C\c2ccc(O)c([N+](=O)[O-])c2)S1`, the growth inhibition was found to be 31%.
The result for `O=C(Nc1cccc(O)c1)c1cccc(C(=O)Nc2cccc(O)c2)c1` reads -2.47%.
Take `COc1ccc(-c2nnc(SCc3nc4ccccc4s3)n2C(C)C)cc1`: the growth inhibition was 5.66%.
For `Cc1cc(C)[n+]2[nH]c(N)c(N=Nc3ccccc3)c2n1` the value was 18.4%.
`Cc1cnc(C(=O)OCC(=O)Nc2cccc3ccccc23)cn1`: the growth inhibition came out at 56.9%.
The result for `CCOc1ccc(N2C(=O)NC(=O)C(=Cc3ccc(N4CCCCC4)o3)C2=O)cc1` reads 13.6%; that for `Nc1ccc(C2(c3ccc(N)cc3)c3ccccc3-c3ccccc32)cc1`, 7.38%; that for `Cc1ccnc2nc(C(=O)Nc3nc4ccccc4s3)nn12`, 23.3%.
For `CC(=O)c1c(C)n([O-])c2ccc(C)cc2[n+]1=O` the value was 13.4%; for `Cc1ccc(C(=O)OCC(=O)NC2CCCC(C)C2C)cc1S(=O)(=O)N1CCCCC1` (stereo not drawn), 60.7%.
For `NC(=O)C[C@H](NC(=O)c1ccc(Cl)cc1)C(=O)OCc1ccccc1` the value was 64%; for `COC(=O)CSc1[nH]c2ccc(Br)cc2c1[N+](=O)[O-]`, 23.5%.
`CCN(CC)c1ccc2c(-c3ccc(S(=O)(=O)O)cc3S(=O)(=O)[O-])c3ccc(=[N+](CC)CC)cc-3oc2c1`: the growth inhibition was -32.3%.
As to `O=C(COC(=O)c1ccc([N+](=O)[O-])o1)Nc1ccc(F)cc1`, the growth inhibition amounted to 62.1%.
Consider `CCN(CC)CCCNc1nc2cc(OC)c(OC)cc2c2nc(-c3ccccc3)nn12`, for which the growth inhibition was 29.9%.
For `O=C(O)c1ccc(NN=C/C=C/c2ccc([N+](=O)[O-])o2)cc1` the value was 41.1%; for `CC1CCCC(C)N1C(=O)COC(=O)c1cccnc1Cl` (stereo not drawn), 76.7%; for `O=C(Nc1ccccc1)Nc1ccno1`, 12.9%.
For `Oc1[nH]c2ccc(Br)cc2c1N=NC(=S)N1CCOCC1` the value was 20%; for `CS(=O)(=O)Nc1ccccc1C(=O)OCC(=O)N1CCC(c2ccccc2)=N1`, 72.4%.
For `OCC#CCSc1nnc(-c2cccc3ccccc23)o1` the value was 28.7%; for `Cc1ccc(C)c(NC(=O)CN(C)C(=O)c2ccc(S(=O)(=O)N3CCCCCC3)cc2)c1`, 65.9%; for `O=C(COC(=O)c1ccccc1O)NC1CCCc2ccccc21` (stereo not drawn), 64.9%.
Take `COCc1nnc(NS(=O)(=O)c2ccc([N+](=O)[O-])cc2)s1`: the growth inhibition amounted to 41.3%.
With `CCCCCCC[n+]1ccc(-c2cc[n+](CCCCCCC)cc2)cc1`, the growth inhibition is 35.2%.
For `O=C1CN(C(=O)COC(=O)c2ccc(Br)o2)c2ccccc2N1` the value was 56.5%; for `CC(C)Sc1nc2c(c(=O)n(C)c(=O)n2C)n1Cc1ccc(Cl)cc1`, 0.504%.
For `NC(=O)CCCn1c(C(=O)c2ccc(Cl)cc2)c2ccc([N+](=O)[O-])cc2[n+]1[O-]` the value was 23.4%; for `O=C(NC(=S)NNC(=O)c1cnccn1)c1ccc(Cl)cc1`, 16.4%; for `C=CC[n+]1ccc(/C=C2\C=Cc3cc(C)ccc3N2CC)c2ccccc21`, 22.1%.
For `CC1CN(C(=O)/C=C/c2ccc3c(c2)OCO3)CC(C)O1` (stereo not drawn) the value was -11.8%; for `O=c1c2c(-c3ccccc3)csc2nc2c3ccccc3c(NCCN3CCOCC3)nn12`, 24.3%.
As for `O=[N+]([O-])c1ccc(-n2cnc3ccccc32)c([N+](=O)[O-])c1`, the growth inhibition came out at 25.6%.
The result for `COc1ccccc1C(CNC(=O)CN1C(=O)NC(C)(c2ccc3ccccc3c2)C1=O)N1CCCC1` (stereo not drawn) reads 75.7%; that for `[O-][n+]1c2ccccc2[n+]([O-])c2cc(O)ccc21`, 8.96%.
The result for `C=CCC(CC(=O)NC(CO)Cc1ccccc1)C(=O)NC(COC(=O)C(CC=C)Cc1ccc(F)cc1)Cc1ccccc1` (stereo not drawn) reads -10.3%; that for `OCC#CCSc1nnc(-c2ccccc2Br)o1`, 21.6%; that for `CC(=O)c1nn(-c2ccc(Cl)cc2)cc1C(=O)c1ccc(C)cc1`, 1.5%.
The result for `COC(=O)c1c(NC(=O)CN2C(=O)NC3(CCCCC3C)C2=O)sc2c1CCC2` (stereo not drawn) reads 52.7%; that for `Cc1ccc(S(=O)(=O)Nc2c(C)n(C)n(-c3ccccc3)c2=O)cc1C(=O)OC(C)C(=O)c1ccccc1` (stereo not drawn), 55.1%.
For the compound `N#CC(=NNc1cccc(C(F)(F)F)c1)C(=O)c1csc(-c2cccnc2)n1`, the growth inhibition worked out at 26.4%.
For `O=c1oc2ccccc2nc1/C=C(\O)c1ccccc1` the value was 26.8%.
The result for `C=C(C)[C@@H]1CC=C(CN2CCN(Cc3ccccc3)CC2)CC1` reads 22.8%; that for `O=C(NN=Cc1ccc([N+](=O)[O-])o1)C(O)c1ccccc1` (stereo not drawn), 52.5%.
For `CC(=O)OCCNc1cc(N2CCN(C)CC2)c2noc3c2c1C(=O)c1ccccc1-3` the value was 2.38%; for `O=c1c2c(-c3ccc([N+](=O)[O-])cc3)csc2nc2n1CCC2`, 18.5%; for `O=C(OCC#CCSc1nnc(-c2ccc(Br)cc2)o1)c1cccs1`, 25.2%.
In the case of `CCN(C(=O)COC(=O)c1nc(Cl)ccc1Cl)c1c(N)n(Cc2ccccc2)c(=O)[nH]c1=O`, the growth inhibition was 60.7%.
For `CN(CC(=O)Nc1ccccc1Br)C(=O)c1ccccc1Sc1ccccc1C#N` the value was 68.2%; for `CC1OC(OC2C(Oc3cc(O)c4c(c3)OC(c3ccc(O)cc3)CC4=O)OC(CO)C(O)C2O)C(O)C(O)C1O` (stereo not drawn), 45.6%; for `CN1C(=O)/C(=C/c2ccc(N3CCCCCC3)o2)C(=O)NC1=S`, 12.8%.
For `CC(C)CC1CN=C(N)N1CC1CCCN1CC(C)N1CC(Cc2ccccc2)N(CCc2ccc(Cl)c(Cl)c2)C1=N` (stereo not drawn) the value was 48.9%; for `O=C(CCCOc1ccc(Cl)cc1Cl)Nc1ccccc1C(=O)O`, 52.5%; for `CCC1=NNc2cccc3c(OC)ccc1c23`, 20.7%.
For `COC1OC2O[C@@]3(C)CCC4C(C)CCC(C1C)[C@@]24OO3` (stereo partly drawn) the value was -0.616%; for `CCc1ccc(C(C)=NNC(=O)c2ccc(-n3cnnn3)cc2)cc1`, 50.4%.
On to `CCN1/C(=C/c2ccc3cc(C)ccc3[n+]2CC)Sc2cc(C)c(C)cc21`, for which the growth inhibition was found to be 8.86%.
The result for `N#Cc1ccc(NCC(=O)N2CCN(S(=O)(=O)c3ccccc3)CC2)cc1` reads 81.4%.
For `CSCCC(NC(=O)c1ccccc1Br)C(=O)NNC(=O)c1ccncc1` (stereo not drawn) the value was 58.8%; for `CCn1c(SCC(=O)NC(=O)NCc2ccco2)nc2sc(C)c(C)c2c1=O`, -6.53%.
The result for `O=C(Nc1cccc(O)c1)c1cccc(NC(=O)c2cccs2)c1` reads -5.34%; that for `O=C(OCCCOC(=O)c1ccc([N+](=O)[O-])o1)c1ccc([N+](=O)[O-])o1`, 38.3%.
For the compound `Brc1ccc(OCc2nnc3n2CCC3)cc1`, the growth inhibition is 18.9%.
For `CC(NC(=O)c1ccc(F)cc1)c1ccccc1` (stereo not drawn) the value was 33.8%; for `C=C1CSc2nc(=O)c3c4c(sc3n21)CCC4`, 19.9%.
The result for `O=C(NN=Cc1ccc(OCc2ccccc2)cc1)c1ccncc1` reads 12.9%.
For `COc1ccc(C(=O)Nc2nc(C)c3cc4c(cc3n2)OCO4)cc1` the value was -48.1%; for `Cn1c2ccccc2c(=O)c2ccc(NCCc3cccs3)cc21`, 24.3%; for `CCC(C)NC(=O)CCC(=O)OC1O[C@H]2OC3(C)CC[C@H]4[C@H](C)CCC(C1C)C24OO3` (stereo partly drawn), 8.48%.
Consider `CC1CCN(C(=O)C2CCN(c3ncnc4c3nc3n4CCCCC3)CC2)CC1`, for which the growth inhibition was 50.1%.
